The campaign covered roughly 1,100 compounds. About 390 (35%) were called active. The inconclusive results got no clear call from the source; some entries with a clear call stand among them for comparison. Calls come from the whole dose curve; as a rule, active = well fitted inhibition curve with a large enough effect; inconclusive = small, poorly fitted or top-dose-only effect; inactive = flat fitted curve, though single readings scatter. Potencies of inconclusive entries are doubtful fits and often do not repeat.
The compounds below were run against Luciferin 4-monooxygenase (Photinus pyralis) (UniProt P08659) (assay: qHTS of Nrf2 Activators: Hit Validation in Secondary FLuc Assay). Settings: firefly luciferase inhibition counter-screen, luminescence; series mostly up to 57.5 µM; activity, negative = inhibition: at the top concentration.
Method in brief: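 Counter-screen on purified firefly luciferase with ATP and D-luciferin at Km concentrations; compounds flagged if they inhibit the enzyme, indicating possible reporter stabilization rather than ARE activation.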
% is set by controls: 0 for no effect and ±100 for the full control effect; potency is the fitted concentration of half-maximal effect; tags give direction and shape of the fitted curve.
Note: nearly all actives have a fitted effect of over 65% in size.

| Structure (SMILES) | Potency | activity, negative = inhibition |
| --- | --- | --- |
| S=c1[nH]nc(-c2ccccc2)n1/N=C/C=C/c1ccco1 | inconclusive: 12 µM [inhibitor, partial curve] |  |
| COc1cc2c(cc1NC(=O)c1cccc(F)c1)CCCC2 | inconclusive: 16.9 µM [inhibitor, partial curve] |  |
| C[n+]1c2n(c3ccccc31)N=C(c1ccccc1)CS2 | inactive |  |
| Cc1ccc([N+](=O)[O-])cc1NC(=O)c1ccc(C(C)(C)C)cc1 | inconclusive: 13.5 µM [inhibitor, partial curve] |  |
| CC(C)Oc1ccccc1/C=N/Nc1ccccc1[N+](=O)[O-] | inconclusive: 10.7 µM [inhibitor, partial curve] |  |
| CCc1nc(N)c(C#N)c(-c2ccco2)c1C |  | inactive: -17.2% |
| CSc1nsc(SC)c1C(=O)Nc1ccc(Cl)cc1 |  | inactive: -1.94% |
| Cn1c(SCC(=O)N/N=C/C=C\c2ccco2)nc2ccccc21 | inconclusive: 16.9 µM [inhibitor, partial curve] |  |
| c1ccc(Cn2ncc3c(NCc4ccco4)ncnc32)cc1 |  | inactive: 3.05% |
| Cc1ccc(OCC(=O)Nc2cccc3ccccc23)c([N+](=O)[O-])n1 | inconclusive: 30.1 µM [inhibitor, single point] |  |
| COc1cccc(C(=O)Nc2cc(C)c3c(=O)oc4ccccc4c3n2)c1 | inconclusive: 9.53 µM [inhibitor, partial curve] |  |
| N/C(=N\OC(=O)c1ccco1)c1cccc(Br)c1 | active: 2.39 µM |  |
| O=C(c1ccco1)c1cn(CC(=O)N2CCCc3ccccc32)c2ccccc12 |  | inactive: -29.5% |
| COc1cc2c(c(Br)c1N)-c1cc(Br)c(N)cc1C2=O | inconclusive: 9.53 µM [inhibitor, partial curve] |  |
| C=CCn1c(=NC(=O)c2cc(Cl)sc2Cl)sc2cc(S(N)(=O)=O)ccc21 | inconclusive: 37.9 µM [inhibitor, single point] |  |
| Cc1cc(NC(=O)c2ccccc2F)nc2c1c(=O)oc1ccccc12 | inconclusive: 21.3 µM [inhibitor, single point] |  |
| Cc1csc(NC(=O)/C=C/c2ccco2)n1 | active: 3.01 µM |  |
| O=C(N/N=C\c1ccc(Cl)cc1)c1sccc1-n1cccc1 | inconclusive: 19 µM [inhibitor, single point] |  |
| O=C(C=Cc1ccccc1Cl)c1ccccc1 | active: 0.953 µM |  |
| CN(C)CCN(C(=O)/C=C/c1cccs1)c1nc2c(F)cc(F)cc2s1 | inconclusive: 37.9 µM [inhibitor, single point] |  |
| COC(=O)c1c(NC(=O)c2ccco2)sc(C)c1C | inconclusive: 21.3 µM [inhibitor, single point] |  |
| COC(=O)c1sccc1NC(=O)c1ccc(Br)o1 | inconclusive: 37.9 µM [inhibitor, single point] |  |
| COc1ccc(NC(=O)C2CC(=O)N/C(=N/N=C/c3ccco3)S2)cc1 (stereo not given) |  | inactive: -14.5% |
| O=C(CSc1nnc(-c2cccnc2)o1)c1cc2ccccc2oc1=O |  | inactive: -5.35% |
| O=C1Nc2ccccc2SC1=Cc1ccccc1 | inconclusive: 1.9 µM [inhibitor, full curve] |  |

| Structure (SMILES) | Potency | activity, negative = inhibition |
| --- | --- | --- |
| Cc1cc(N/N=C/c2c(O)ccc3ccccc23)nc(-c2ccccc2O)n1 | active: 7.57 µM |  |
| O=C(/C=C\c1ccc2c(c1)OCO2)CC1(O)C(=O)Nc2ccccc21 (stereo not given) | active: 9.53 µM |  |
| O=C(c1nn2c(C(F)(F)F)cc(-c3ccco3)nc2c1Br)N1CCCc2ccccc21 | inconclusive: 21.3 µM [inhibitor, single point] |  |
| O=C(Nc1ncnc2sc3c(c12)CCCCC3)c1ccco1 | inconclusive: 37.9 µM [inhibitor, single point] |  |
| FC(F)(F)c1cc(-c2ccco2)nc(-n2nnc3ccccc32)n1 |  | inactive: -18.6% |
| Cn1c(NCC2CCCCC2)nc2cc(-c3ccsc3)sc2c1=O |  | inactive: -9.1% |
| O=[N+]([O-])c1cccc(-c2cn(-c3ccccc3)c(=S)[nH]2)c1 | inconclusive: 0.536 µM [inhibitor, full curve] |  |
| COC(=O)c1cc2c(s1)-c1cc(F)ccc1OC2 |  | inactive: -13.2% |
| O=c1oc2ccc(Cl)cc2nc1/C=C(\O)c1cccs1 | inconclusive: 23.9 µM [inhibitor, single point] |  |
| CS(=O)(=O)Cc1nc2ccccc2oc1=O |  | inactive: 0.923% |
| COc1cc(/C=C/c2ccc3cccc(O)c3n2)cc(OC)c1OC | inconclusive: 5.36 µM [inhibitor, partial curve] |  |
| O=C(CCNc1cc(Cl)cc(Cl)c1)c1cccs1 | inconclusive: 15.1 µM [inhibitor, partial curve] |  |
| O=C(Nc1ccccc1O)c1cccc(NC(=O)c2ccco2)c1 | inconclusive: 13.5 µM [inhibitor, partial curve] |  |
| C/C(=N\NC(=O)c1c[nH]c2ccccc12)c1ccco1 | active: 7.57 µM |  |
| Cc1cccc2nc3c(nc12)-c1ccccc1C3=O |  | inactive: -28.5% |
| CC(=O)Nc1nc2cccc([N+](=O)[O-])c2s1 |  | inactive: -5.67% |
| c1cncc(-c2noc(-c3cccc4ccccc34)n2)c1 | active: 2.39 µM |  |
| COc1ccc(C(=O)NCC(=O)N/N=C/C(C)=C/c2ccco2)cc1OC | inconclusive: 19 µM [inhibitor, partial curve] |  |
| O=c1[nH]n(Cc2ccccc2)c(=O)c2ccccc12 | inconclusive: 15.1 µM [inhibitor, partial curve] |  |
| Cc1ccc(C(=O)N/N=C/c2ccc(-c3ccc(Br)cc3[N+](=O)[O-])o2)o1 | active: 3.79 µM |  |
| Cc1cccc2c(=O)n(C(=O)c3ccccc3)c(N)nc12 | inconclusive: 23.9 µM [inhibitor, single point] |  |
| O=C(CSc1nc2c(sc3ccccc32)c(=O)n1-c1ccccc1)NCc1ccco1 | inconclusive: 8.49 µM [inhibitor, partial curve] |  |
| O=Cc1c(NCc2ccco2)nc2ccccn2c1=O | inconclusive: 33.8 µM [inhibitor, single point] |  |
| Cc1cc(C)c(C#N)c(OCC(=O)c2ccc(Br)cc2)n1 |  | inactive: -2.59% |
| NS(=O)(=O)c1ccc(NC(=S)NC(=O)c2cccc(Br)c2)cc1 | inconclusive: 37.9 µM [inhibitor, single point] |  |

From PubChem BioAssay AID651597 (National Center for Advancing Translational Sciences (NCATS), 2012)
